± gives the standard deviation of the averaged measurements. The list shows a part of the results.
system: PfAP2-G AP2 domain (GST-tagged); experiment: gcPBM binding intensity (ln(normalized median fluorescence intensity)); higher = stronger DNA binding
Procedure, shortened: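 GST-tagged P. falciparum DNA-binding domains produced in E. coli were incubated for 1 h on an Agilent 4 × 180k array of primer-extended double-stranded 36-bp intergenic genomic probes with negative controls. Binding intensity is the highest Masliner-normalised natural-log median intensity across replicate spots of either probe orientation, with bound protein detected by Alexa488 anti-GST antibody at 488 nm.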

Sequence | gcPBM binding intensity (ln)
AATTAAACTTTGTTTTTGTTTTTTTTTTTTATATTT [CACACA_negctrl_site1316] | 9.49 ± 0.057
ATATATATAAATATATGTACATAAATATATTTGTAA [XGTACX_site6715] | 11.2 ± 0.76
AAATAAAAATTAAAAAAATAGAAACGAATTGAATGC [TGCATGCA_negctrl_site365] | 9.87 ± 0.099
CGCGTATAACGAAATTGTACAAAAAAAATTAAACAT [XGTACX_site6813] | 11 ± 0.5
TCTTTAACAAGTTAAACACACATACCTATATACATA [CACACA_site7237] | 9.86 ± 0.085
TGGTGATATACGAAATGTACGCAAATCACAAAATAA [XGTACX_site8836] | 11.5 ± 0.98
ATATATATATATAAAGGTACACATTTATTAAATATA [XGTACX_site7102] | 11.3 ± 0.97
AATTTTGAGATGTGGTGTACACAAAATTAGTTAGAC [XGTACX_site7033] | 11.7 ± 0.98
TCAACGATCACTCGGTGTACTATAAATGAGAGAATT [XGTACX_site1820] | 11.3 ± 0.95
ATTAAATTAAAATAATGTACTTAATACTTTTGCTTA [XGTACX_site8404] | 11.1 ± 0.69
AACAATTTTTAAAGGTGTACAATATGTATATAAGAA [XGTACX_site254] | 11.6 ± 0.93
AACAAATTAATTCTAGTGCAGGACGTATTTGTGTAC [GTGCAC_site9907] | 11.1 ± 0.51
AAAAAAAAAAAAAAATGTACATATATAATATTTATA [XGTACX_site5117] | 11.1 ± 0.71
TACAAAATGTTATATCAATATAGATAAAAAAATGAA [XGTACX_negctrl_site285] | 9.65 ± 0.23
TAATATATATAACATATACACACGTTCATATATATA [CACACA_site462] | 9.82 ± 0.042
TATTTGCAATATTATACACACATTAGATATTGCAAA [CACACA_site7565] | 9.95 ± 0.11
ATAAAAATATATGAAACACACAGTTTCTATAAGAAA [CACACA_site4156] | 9.76
ATATGTATATAATAAGAACACACATATATTTAATTT [CACACA_site8961] | 10.2 ± 0.16
GTTATTAAATAATTCACACACATATATAAATAAATA [CACACA_site7129] | 9.85 ± 0.057

Sequence | gcPBM binding intensity (ln)
TTGTGCTAAACAAAAAAAAATATATATAAAAAAATA [XGTACX_negctrl_site388] | 9.88 ± 0.33
TACAATATAATTTAATGTACATGTGAATATATATAT [XGTACX_site4675] | 11.2 ± 0.71
TAATATACTATAAATACACACAAGTGTACATACTTC [CACACA_site983] | 11.3 ± 0.87
TTAAAAAGAGGTGACACACACATATAAATCTAAATC [CACACA_site3738] | 10.08 ± 0.057
TATTAAAAGGTGAGTACACACATATCTGAGTATATA [CACACA_site5192] | 11.5 ± 0.91
CTTCATAAAAATTGCACACATATAATAATGTACATA [CACACA_site2212] | 11.2 ± 0.64
AAAAAAAATACATACACACACACACGCACATATATA [CACACA_site7645] | 10.3 ± 0.18
ATTTTTTTATAATCAACCCATTTCCTACATTTTTAT [CACACA_negctrl_site1237] | 10.045 ± 0.007
CATCCACATAGATGTACACACATATATATATATATA [CACACA_site5616] | 11.4 ± 0.75
ATATGTATATTTTTGATGTGCTTTTATTTGGTTATT [CACACA_negctrl_site626] | 10.01 ± 0.035
AATAAATATAAATAAATAAATATATATATATATTTG [CACACA_negctrl_site1486] | 9.305 ± 0.035
ATATCTCAACATATCACACATATATATATATAATAT [CACACA_site5018] | 9.98 ± 0.13
GTATATATGTTTTATACACACATTAAAGGAAATATA [CACACA_site984] | 10.3 ± 0.28
CACAAACAGACAAACACACACACACGGACATACATA [CACACA_site6350] | 11 ± 0.48
TATAATATATAAAAATGTACACATAAATATAAGTAG [XGTACX_site665] | 11.5 ± 0.8
ACATGCAAGAAGAAATGTACTTAACATCTATATAGA [XGTACX_site7338] | 10.9 ± 0.64
ACTAAATAAATAAATATAATATATAAATATGTATGT [TGCATGCA_negctrl_site583] | 9.73 ± 0.13
AAAATTAATTTATTTACACACAATATTAAAATATTT [CACACA_site7512] | 9.88 ± 0.071
TTTTATACATATTTTACACACTAAAATATACAGATA [CACACA_site4333] | 10.1 ± 0.099

Sequence | gcPBM binding intensity (ln)
TTACATATTCATAAAAGTACATAATTATAAAAGGTA [XGTACX_site906] | 11.2 ± 0.76
AATCAAAAAGGAACCATAATATTACAACTATATATA [CACACA_negctrl_site381] | 10.1 ± 0.11
TAAAACTTAATGTTTTGTACATATTCTTCTTTATTT [XGTACX_site4271] | 10.7 ± 0.34
AAACAATTATTATATTGTACATATATTACATTATTA [XGTACX_site1089] | 10.9 ± 0.76
TTATATTTTATTATGTGTACGTATATAATATAATAT [XGTACX_site6230] | 11.6 ± 0.97
GCCATAAAGATATATACACACATAAAAAAAAGTTAT [CACACA_site6674] | 10.1 ± 0.16
AAAAAAAAAATTAAATGTACATATATAATATATATA [XGTACX_site7245] | 10.9 ± 0.63
ATTATTATAGATAAAACACACAATTTTGTTTTCACA [CACACA_site7792] | 9.82 ± 0.057
TTAACAAAGAAACACACACACACACCCAAAAAAAAA [CACACA_site516] | 10.4 ± 0.33
TTTTTATTCGTTAAATGTACAAAAAAAATGTTATAT [XGTACX_site2804] | 10.8 ± 0.48
ATACACTAGAAAATTTTATAGTATTATTAATGTTAA [GTGCAC_negctrl_site101] | 9.89 ± 0.057
ATAAAGTAAGAAGAAATAATGATTTTCATGGAAAAC [XGTACX_negctrl_site322] | 9.76 ± 0.17
AATAAGATAAGGAAAAGTACTTATAATTAAACTAAT [XGTACX_site1850] | 11.1 ± 0.57
CTCATAGTTGGGTGCACACAAAAAATTAAAAAAATA [CACACA_site3032] | 10.8 ± 0.8
AAATATAAGTAAATAAATAAATATATAAATATATAA [TGCATGCA_negctrl_site441] | 9.53 ± 0.16
AAATACATACATTAATGTACAAATAGAAACACTCTT [XGTACX_site1512] | 10.7 ± 0.42
GCTTAGTTATATAACTGTACTATTTTTATTTATATG [XGTACX_site884] | 11.5 ± 0.97
CTTATACAAAAAAAAAGTACATAACATAATAAGAAT [XGTACX_site6782] | 11.5 ± 0.81
